Laboratory results reported in article PMC4336329 (PLoS ONE, 2015).
Screen size: about 310,000 compounds; about 14,000 (4.5%) showed an effect of 50% or more. The effect is printed as a negative number. The list shows a part of the results.

Each compound was assayed against human ether-à-go-go-related gene (hERG) potassium channel (human, UniProt Q12809) (assay: primary screen, population patch clamp on CHO cells stably expressing hERG).
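Note: peak tail current of the secondary pulse compared with the same well before compound.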

Chain of human ether-à-go-go-related gene (hERG) potassium channel (Q12809 whole entry, looked up): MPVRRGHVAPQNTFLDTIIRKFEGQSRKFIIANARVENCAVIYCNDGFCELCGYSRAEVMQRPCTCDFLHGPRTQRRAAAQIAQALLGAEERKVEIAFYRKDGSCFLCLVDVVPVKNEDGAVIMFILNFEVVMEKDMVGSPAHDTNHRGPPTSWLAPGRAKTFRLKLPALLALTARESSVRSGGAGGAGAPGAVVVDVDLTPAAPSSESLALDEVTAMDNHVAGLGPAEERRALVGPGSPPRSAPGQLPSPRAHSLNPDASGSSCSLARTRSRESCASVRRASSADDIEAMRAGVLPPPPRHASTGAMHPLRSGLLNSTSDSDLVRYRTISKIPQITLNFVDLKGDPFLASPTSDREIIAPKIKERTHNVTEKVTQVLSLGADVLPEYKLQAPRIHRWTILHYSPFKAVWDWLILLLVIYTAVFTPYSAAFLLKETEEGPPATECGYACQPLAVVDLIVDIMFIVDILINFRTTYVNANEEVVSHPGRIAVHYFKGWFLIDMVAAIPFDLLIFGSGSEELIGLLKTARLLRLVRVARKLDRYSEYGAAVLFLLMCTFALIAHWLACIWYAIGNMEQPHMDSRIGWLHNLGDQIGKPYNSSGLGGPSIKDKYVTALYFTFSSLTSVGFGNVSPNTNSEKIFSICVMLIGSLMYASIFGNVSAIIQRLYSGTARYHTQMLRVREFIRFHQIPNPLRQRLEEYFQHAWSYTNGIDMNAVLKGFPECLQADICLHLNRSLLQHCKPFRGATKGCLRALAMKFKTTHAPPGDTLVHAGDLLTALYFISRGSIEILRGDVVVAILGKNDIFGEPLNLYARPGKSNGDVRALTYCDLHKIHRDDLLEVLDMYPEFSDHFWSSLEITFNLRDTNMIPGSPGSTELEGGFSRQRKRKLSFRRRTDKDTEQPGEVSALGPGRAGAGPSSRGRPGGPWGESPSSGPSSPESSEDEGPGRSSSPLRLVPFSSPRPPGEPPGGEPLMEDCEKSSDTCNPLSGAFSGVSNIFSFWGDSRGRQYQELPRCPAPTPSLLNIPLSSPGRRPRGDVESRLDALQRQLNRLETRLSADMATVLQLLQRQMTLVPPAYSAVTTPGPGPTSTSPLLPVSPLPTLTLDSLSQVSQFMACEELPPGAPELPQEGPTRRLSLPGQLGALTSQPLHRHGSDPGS

| SMILES | hERG current change (%, negative = inhibition) at 10uM [%] |
| --- | --- |
| O=C(O)/C=C\c1cccc(-n2nnnc2SCc2ccccc2F)c1 | 21.5 |
| O=C(Nc1ccc(Br)cc1)c1ccccc1CC[N+](=O)[O-] | 1.01 |
| O=C(CCc1nnc2n(Cc3ccc(Cl)cc3)c(=O)c3ccccc3n12)N1CCN(c2ccccn2)CC1 | -57 |
| Cc1ccccc1-c1nn(-c2ccc(F)cc2F)cc1CNCCN(C)C | -12.1 |
| COc1ccc(C(CNC(=O)C(=O)Nc2ccc3c(c2)OCO3)N2CCN(C)CC2)cc1 (stereo not shown) | -50.9 |
| CCOc1cc(NC(=S)Nc2cccc(OC)c2)c(OCC)cc1NC(=O)c1ccc(C)cc1 | 1.37 |
| O=C(Nc1ccc(N2C(=O)C3CCCCC3C2=O)cc1Cl)c1cccs1 (stereo not shown) | 27.1 |
| O=C(NCc1ccc2c(c1)OCO2)c1c(Cl)cccc1Cl | 8.6 |
| CN1CC(=O)N(CC(=O)Nc2ccc(Cl)c(C(F)(F)F)c2)C1=O | 8.97 |
| CCN(CC)S(=O)(=O)c1cccc(C(=O)NCc2ccccc2)c1 | -26.8 |
| CC(=O)NCCCNc1ccc([N+](=O)[O-])cc1 | -14.1 |
| COCCNC(=O)CSc1cc(=O)n(C)c2cc(Cl)ccc12 | 2.04 |
| COc1cc(OC)cc(-n2nc(C(=O)N3CCC4(CC3)OCCO4)c3ccccc3c2=O)c1 | 1.3 |
| Cc1nc2nc(SCC(=O)Nc3cccc(F)c3)[nH]c2cc1Br | 23.2 |
| COC(=O)/C=c1/s/c(=C(/C#N)C(=O)NCc2ccccc2)n(-c2ccccc2)c1=O | -12.6 |
| O=C(COC(=O)/C=C/c1ccco1)Nc1ccc(F)cc1Cl | 19.1 |
| COc1ccc2[n-]c(S(=O)Cc3ncc(C)c(OC)c3C)nc2c1.COc1ccc2[n-]c(S(=O)Cc3ncc(C)c(OC)c3C)nc2c1.[Mg+2] (stereo not shown) [49665950] | 16.3 |
| O=C(CN1CCN(S(=O)(=O)c2ccc3ccccc3c2)CC1)Nc1ccc2c(c1)CCC2 | 11.3 |
| CCc1nnc(NC(=O)c2ccc(S(=O)(=O)N3CCCCCC3)cc2)s1 | 6.4 |
| COc1ccc(Br)cc1C1N2CC3(C)CN1CC(C)(C2)C3=O (stereo not shown) | -1.65 |
| CCOC(=O)c1ccc(NC(=S)N2CCCC2c2ccc(OC)c(OC)c2)cc1 (stereo not shown) | 8.38 |
| COc1ccc(CCN(C)Cc2ccc(F)cc2F)cc1OC | -0.788 |

| SMILES | hERG current change (%, negative = inhibition) at 10uM [%] |
| --- | --- |
| CCN1CCN(CCCNC(=O)C(=O)c2c(C)[nH]c3ccccc23)CC1 | 3.67 |
| C=CCN(c1ccc(F)cc1)S(=O)(=O)c1cc(C(=O)NC2CCC(O)CC2)ccc1Cl (stereo not shown) | -39.4 |
| Cc1ccc(-c2cc(C(=O)[O-])c3cc(Br)ccc3n2)s1.[K+] | 22.1 |
| COC(=O)c1c(NC(=O)c2cnccn2)sc2c1CCC2 | 16.9 |
| Cc1[nH]n(-c2ccc(F)cc2)c(=O)c1C=Nc1ccc(S(=O)(=O)N(C)C)cc1 | 5.26 |
| Nn1c(C2COc3ccccc3O2)n[nH]c1=S (stereo not shown) | 7.74 |
| Cc1cc(C)n(C2=NS(=O)(=O)c3ccccc32)n1 | 13.9 |
| Cc1cc2cc(CNC(=O)Nc3ccccc3)ccc2[nH]1 | 6.64 |
| CCCC(=O)NCCSC | 12.8 |
| CC(C)CNS(=O)(=O)c1ccc(CC(C)C)cc1 | -2.9 |
| C=CCN(c1ccccc1C(=O)O)S(=O)(=O)c1ccc(C)cc1 | 18.6 |
| COc1ccc(C[C@H]2CN3C(=NC[C@@H]3Cc3ccc(O)cc3)N2C[C@H](C)NC(=O)CCC2CCCCC2)cc1 | -66.1 |
| O=C(CCCc1ccccc1)NCCCN1CCOCC1 | 6.76 |
| Cl.O=C(CN1CCN(C(=O)c2cccs2)CC1)NC1CCCCC1 | -1.7 |
| CC(C)c1ccc(N2CCN(C(=O)c3ccccc3NC(=O)/C=C\C(=O)O)CC2)cc1 | 5.25 |
| Fc1ccc(CNCc2ccco2)cc1 | 11.5 |
| COc1cccc(C(=O)C2CCCN(Cc3ccccn3)C2)c1 (stereo not shown) | -26 |
| C=CCN1C(=O)/C(=C\c2cccs2)C(C(=O)OC)=C1C | 9.05 |
| Cn1c(=O)cc(OCC(=O)NCCCN2CCN(Cc3ccccc3)CC2)c2ccccc21 | -17.8 |
| CN1CCN(c2ccc(Cl)cc2NC(=O)c2cc(=O)[nH]c3ccccc23)CC1 | -31.4 |
| Cc1nnc(SC(C)C(=O)Nc2ccc(Cl)cn2)n1Cc1ccccc1 (stereo not shown) | -17.3 |
